# Out of some 230,000 compounds screened, fewer than 10 were called active. The inconclusive results got no clear call from the source; some entries with a clear call stand among them for comparison. The call rests on the fitted dose curve; in most records, active means well fitted curve in the direction sought with a large enough effect; inconclusive means small, poorly fitted or top-dose-only effect, or effect the other way, or another doubt; inactive means no such curve, though single readings can be large or run the other way. No potency is given beside an inconclusive call; the fits are too rough.
# Molecular target: Runt-related transcription factor 1 (Homo sapiens) + Core-binding factor subunit beta (Homo sapiens) (UniProt Q01196+Q13951)
# Assay: qHTS Assay for Compounds Blocking the Interaction Between CBF-beta and RUNX1 for the Treatment of Acute Myeloid Leukemia
# Conditions: AlphaScreen CBFb-His/RUNX1-biotin binding, biochemical; series mostly up to 59.8 µM
# In short: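 His-tagged CBF-beta and biotinylated RUNX1 (30 nM each) were premixed 20 min at room temperature, exposed to compound for 15 min, then given nickel-chelate and streptavidin AlphaScreen beads (50 ng each). After 90 min, AlphaScreen signal was read.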
# Sequence of UniProt Q01196 (Q01196 whole entry, looked up): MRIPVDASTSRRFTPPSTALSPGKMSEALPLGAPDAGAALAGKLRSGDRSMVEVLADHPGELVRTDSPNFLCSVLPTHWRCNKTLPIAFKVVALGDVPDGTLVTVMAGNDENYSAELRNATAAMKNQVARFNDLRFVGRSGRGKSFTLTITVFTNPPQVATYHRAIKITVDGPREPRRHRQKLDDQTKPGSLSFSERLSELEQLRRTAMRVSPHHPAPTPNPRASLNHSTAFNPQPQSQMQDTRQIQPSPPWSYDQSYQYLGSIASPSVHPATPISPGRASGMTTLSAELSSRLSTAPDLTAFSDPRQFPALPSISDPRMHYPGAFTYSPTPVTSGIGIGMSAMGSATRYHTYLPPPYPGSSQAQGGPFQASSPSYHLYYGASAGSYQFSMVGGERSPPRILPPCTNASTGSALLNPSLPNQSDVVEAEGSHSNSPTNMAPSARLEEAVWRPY
# Sequence of UniProt Q01196 (Q13951 whole entry, looked up): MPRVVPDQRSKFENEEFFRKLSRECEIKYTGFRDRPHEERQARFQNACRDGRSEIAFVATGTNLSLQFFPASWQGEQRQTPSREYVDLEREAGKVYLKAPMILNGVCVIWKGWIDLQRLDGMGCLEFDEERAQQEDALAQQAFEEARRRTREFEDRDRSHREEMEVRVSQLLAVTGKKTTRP
row,SMILES,Potency
1,COC(=O)c1cc2ccsc2n1Cc1cccc(F)c1,"inconclusive [activator, single point]"
2,COc1ccc(-c2ccc(SCC(=O)Nc3nccs3)nn2)cc1OC,"inconclusive [activator, single point]"
3,OCCCc1nc2n(n1)C(c1ccccc1)C=C(c1ccc(F)cc1)N2 (centres undefined),inactive
4,Cc1cc(C(=O)COc2ccc(-c3nnco3)cc2)c(C)n1Cc1ccccc1,"inconclusive [inhibitor, single point]"
5,COC(=O)N/N=C/c1cn(CCOc2ccccc2)c2ccccc12,"inconclusive [activator, single point]"
6,CCN(CC)c1ccc(/C=C(\C#N)C(N)=S)cc1,"inconclusive [inhibitor, partial curve]"
7,CCCCOc1ccc(/C=C/C(=O)OCC(=O)NC(=O)NCC(C)C)cc1OCC,inactive
8,Cc1ccc(N2NC(=O)/C(=C/c3ccc(-c4ccc(Cl)c(C(=O)O)c4)o3)C2=O)cc1C,"inconclusive [activator, full curve, poor fit]"
9,CC(C)C(=O)OCC(=O)Nc1ccc(N=Nc2ccccc2)cc1,"inconclusive [inhibitor, single point]"
10,NNC(=O)CNS(=O)(=O)c1ccc([N+](=O)[O-])cc1,"inconclusive [activator, single point]"
11,CCOC(=O)c1ccccc1NC(=O)c1ccccc1SC,inactive
12,O=C(OCC#CCSc1nnc(-c2cccc3ccccc23)o1)c1cccs1,"inconclusive [activator, single point]"
13,O=C(O)c1nn(-c2ccccc2-c2n[nH]c(=O)[nH]c2=O)c(=O)[nH]c1=O,"inconclusive [activator, full curve, poor fit]"
14,O=S(=O)(c1ccc(Cl)cc1)c1cc(Cl)c(Cl)cc1Cl,"inconclusive [activator, single point]"
15,O=C(/C=C/NNC(=O)c1ccccc1)c1ccc([N+](=O)[O-])cc1,"inconclusive [inhibitor, single point]"
16,CSCSC1=C(C#N)C(c2ccc(Cl)cc2)C(C(C)=O)=C(C)N1 (centres undefined),"inconclusive [activator, single point]"
17,COc1ccc(C2/C=C\CN(Cc3ccc(N(C)C)cc3)CC(=O)N2Cc2ccc(F)cc2)cc1 (centres undefined),"inconclusive [inhibitor, single point]"
18,Cc1ccc(Cn2ccc(=O)c(Cc3c(Cl)cccc3Cl)c2C)cc1,inactive
19,CCCC1CCC(=NNC(=S)NCCc2ccccc2)CC1 (centres undefined),"inconclusive [inhibitor, partial curve]"
20,CCCCC/C=C\C[C@@H](O)/C=C/C=C\C/C=C\CCCC(=O)O,"inconclusive [activator, full curve, poor fit]"
21,COC(=O)CCn1nnc(-c2ccc(C(C)C)cc2)n1,"inconclusive [activator, single point]"
22,CCOC(=O)c1cnc2c([N+](=O)[O-])cnn2c1C,"inconclusive [activator, single point]"
23,CN1CCc2cc(O)cc3c2C1Cc1ccc(O)c(O)c1-3 (centres undefined),"inconclusive [inhibitor, single point]"

row,SMILES,Potency
1,CC(=O)N1CCc2ccc(S(=O)(=O)N3CC(C)OC(C)C3)cc21 (centres undefined),"inconclusive [inhibitor, single point]"
2,CC(C)(C)[C@@H]1C=C(C(=O)N2CCOCC2)O[C@H](OCc2ccc(CO)cc2)C1,inactive
3,Cc1ccsc1/C=N/n1c(-c2ccncc2)n[nH]c1=S,inactive
4,O=C(N=Nc1c(O)[nH]c2ccccc12)c1cccs1,inactive
5,CC(O)(c1ccc(Cl)cc1)c1ccc(Cl)cc1,"inconclusive [activator, full curve, poor fit]"
6,Cc1ccc(CNC(=O)/C=C/c2ccc(Br)o2)cc1,inactive
7,CN1CCN(c2oc(-c3ccco3)nc2S(=O)(=O)c2ccccc2)CC1,inactive
8,Clc1ccccc1CSc1snnc1-c1ccccc1,"inconclusive [activator, single point]"
9,CC(C)NCC(O)COc1ccc(CC(N)=O)cc1 (centres undefined),"inconclusive [inhibitor, single point]"
10,Cc1nc(S/C(=C/c2ccc(OCc3ccc(C(=O)O)cc3)cc2)C(=O)O)n[nH]1,"inconclusive [inhibitor, full curve]"
11,O=C(COc1ccc(Br)cc1)c1ccc2c(c1)CCCC2,"inconclusive [activator, single point]"
12,COc1cnc(-c2ccccn2)nc1Sc1ccc(F)cc1,"inconclusive [inhibitor, partial curve, poor fit]"
13,O=c1c2nc(Br)n([C@@H]3O[C@@H]4CO[P@@](O)(=S)O[C@H]4[C@H]3O)c2nc2[nH]c(-c3ccccc3)cn12,inactive
14,C=CCN1C=C2C(=O)C(C)(OC(=O)CCC(=O)OC)C(=O)C(Br)=C2C=C1c1ccc(OC)cc1 (centres undefined),"inconclusive [inhibitor, single point]"
15,COc1ccccc1C(=O)O/N=C(/c1ccncc1)c1ccc([N+](=O)[O-])cc1,inactive
16,CCCCNC(=O)CN(CCc1ccccc1)S(C)(=O)=O,"inconclusive [inhibitor, single point]"
17,N#Cc1ccc(N/N=C/c2cn(-c3ccccc3)nc2-c2ccccc2)c([N+](=O)[O-])c1,"inconclusive [activator, full curve, poor fit]"
18,O=c1c2cc(N3CCOCC3)ccc2[nH]c(=S)n1CCc1ccccc1,inactive
19,CCCCCc1cc(=O)oc2c(C(CCN3CCCC3)c3ccc(N(C)C)cc3)c(OC)cc(OC)c12 (centres undefined),"inconclusive [inhibitor, partial curve]"
20,CCOC(=O)N1CCN(C(=O)CSc2ccc3nnc(-c4ccccn4)n3n2)CC1,"inconclusive [inhibitor, single point]"
21,Cc1ccc(S(=O)(=O)N2c3ccc(S(N)(=O)=O)cc3CC2C)cc1 (centres undefined),"inconclusive [inhibitor, single point]"
22,COC(=O)C1CCN(C(=O)COc2cc3sc(C)nc3c3sccc23)CC1,inactive
23,CC[C@H](C)C(N)C(=O)O (some centres undefined),inactive

row,SMILES,Potency
1,CCc1sc(C(=O)N2CCc3ccccc32)cc1C,"inconclusive [activator, partial curve, poor fit]"
2,CC(CO)(CO)NCc1ccc(-c2ccccc2)cc1,"inconclusive [activator, single point]"
3,CC1=NS(=O)(=O)c2cc(Cl)ccc2N1,"inconclusive [activator, single point]"
4,Cc1cccc(N2C(=O)/C(=C/c3ccc(N4CCN(C)CC4)o3)C(=O)NC2=S)c1C,"inconclusive [activator, single point]"
5,Cc1csc(NC(=O)CSc2nc3ccccc3c3c2CCCC3)n1,inactive
6,COc1cc(C)ccc1OCCOc1c(C)cccc1Cl,"inconclusive [activator, single point]"
7,CCOC(=O)Cc1csc(NC(=O)CSc2nnc(-c3cccnc3)n2Cc2ccco2)n1,"inconclusive [activator, full curve, poor fit]"
8,O=S(=O)(c1cccc(F)c1)N1CCCN(c2ccc(C(F)(F)F)cn2)CC1,"inconclusive [activator, single point]"
9,O=C(Nc1nc(-c2ccccn2)cs1)c1cccc(-n2cnnn2)c1,"inconclusive [inhibitor, full curve]"
10,Cc1ccccc1N=C1c2cc([N+](=O)[O-])ccc2-c2ncccc21,"inconclusive [inhibitor, partial curve]"
11,O=[N+]([O-])c1cc(CN2CCOCC2)c2cccnc2c1O,inactive
12,Clc1ccc(-c2nnn(Cc3nc4ccccc4s3)n2)cc1,"inconclusive [activator, single point]"
13,Cc1cccc2cc(C#N)c(SCC#N)nc12,"inconclusive [activator, partial curve]"
14,Cc1ccnc(NC(=O)Nc2ccc(Br)cc2Cl)c1,"inconclusive [activator, single point]"
15,CCOC(=O)c1ccc(NC(=S)N(Cc2cccnc2)Cc2ccco2)cc1,"inconclusive [inhibitor, single point]"
16,COC(=O)c1ccc(CSc2nnc(C)s2)cc1,inactive
17,C/C(=N\OCc1ccc(C#N)cc1)c1cc2ccccc2o1,"inconclusive [activator, single point]"
18,Cn1cc[nH]c1=S,"inconclusive [inhibitor, partial curve]"
19,COc1cccc(NC(=S)Nc2cc(C(=O)O)ccc2N2CC3CC(C2)c2cccc(=O)n2C3)c1 (centres undefined),inactive
20,Cc1nn(C)cc1CNC(=O)Nc1cccc(Cl)c1,"inconclusive [activator, single point]"
21,CC1CC2=C(NC(=S)NC2c2cccc(F)c2)/C(=C/c2cccc(F)c2)C1 (centres undefined),"inconclusive [inhibitor, single point]"
22,CCc1ccc(-n2c(C)nc3cc(C(=O)NCc4cccnc4)ccc32)cc1,"inconclusive [inhibitor, single point]"
23,CCCCN(C)C(=O)Cc1c(OC)ccc2cc(Br)ccc12,"inconclusive [activator, single point]"

# Reference: PubChem BioAssay AID1477 (National Center for Advancing Translational Sciences (NCATS), 2009)
